Measurements as given in PMC7819943, “Rice protein-binding microarrays: a tool to detect cis-acting elements near promoter regions in rice”.
This is one part of the list.

target: T1, OsWOX13 (Oryza sativa, UniProt Q5QMM3 1-267); experiment: protein-binding microarray (RPBM); PBS, 2% BSA, 51.3 ng/ul salmon testes DNA, 50 uM zinc acetate, 200 nM TF, 25 C, 1 h; high values mean tight binding; settings: protein: recombinant; tags: N-terminal polyhistidine and DsRed monomer fusion (pET32a); label: CyDye5-dUTP incorporated in the synthesized complementary strand; 3' TTTTT single-stranded linker to array surface; dsDNA, one strand shown
T1 sequence: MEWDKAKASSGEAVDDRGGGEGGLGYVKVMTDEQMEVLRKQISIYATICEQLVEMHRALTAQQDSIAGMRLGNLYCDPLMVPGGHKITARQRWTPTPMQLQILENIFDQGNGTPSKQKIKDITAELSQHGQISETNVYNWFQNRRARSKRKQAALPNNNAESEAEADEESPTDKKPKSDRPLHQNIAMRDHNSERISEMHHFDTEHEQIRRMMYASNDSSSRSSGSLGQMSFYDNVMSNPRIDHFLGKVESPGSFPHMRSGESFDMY
Method in brief: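 For the binding signal, per-feature fluorescence intensity was read in arbitrary units on an Axon 4000B scanner. Before scanning, a 2% BSA-blocked custom Agilent array made double-stranded with Cy5-dUTP was washed after 1 h at 25 °C with 200 nM protein and 50 µM zinc acetate. The proteins were Ni–NTA-purified transcription factors with N-terminal polyhistidine and DsRed fusions, expressed in E. coli BL21-CodonPlus.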

Q: “GGGCTCTGATTTCTTGTTTCAGTTAACCGCCCATACGAAGCGGAGTCACCTAGTGCAG” was tested. Which binding signal did it give?
A: The binding signal was 4110 fluorescence intensity (a.u.).

Q: For “AATGAATGATATATTTGTATTATAGGATGTGTCATATCCCCGGAGTCACCTAGTGCAG”, which binding signal is on record?
A: Its binding signal is 11800 fluorescence intensity (a.u.).

Q: How did the binding signal turn out when “CTATCAATCAAAGGGGCCCTTAGAATTCAGAAGCTGGTTTCGGAGTCACCTAGTGCAG” was run?
A: Its binding signal is 18600 fluorescence intensity (a.u.).

Q: Which binding signal does the source give for “AGCCTAATTAATTCATCATTAGTAAATATTTACTATAACACGGAGTCACCTAGTGCAG” here?
A: The binding signal was 20000 fluorescence intensity (a.u.).

Q: With “CTGTAGCTGATTATAAATCTATAGTGCTCTTATCTCTCATCGGAGTCACCTAGTGCAG” as the sequence, how does the binding signal read?
A: The binding signal was 8710 fluorescence intensity (a.u.).

Q: Which binding signal does the source give for “CGCGTGTGGTGATTGGCTGGCTCTTTGCCTCATCATGGGCCGGAGTCACCTAGTGCAG” here?
A: The binding signal was 34100 fluorescence intensity (a.u.).

Q: With “TAATTTTAAATTGTAAAATAATAGAGCTAACAAGTTGTGCCGGAGTCACCTAGTGCAG” as the sequence, how does the binding signal read?
A: The binding signal was 7000 fluorescence intensity (a.u.).

Q: How did the binding signal turn out when “TATAATTATCCTCTTCCGCAGACCATGTAAGAGGAAAACACGGAGTCACCTAGTGCAG” was run?
A: Its binding signal is 5620 fluorescence intensity (a.u.).

Q: How did the binding signal turn out when “GCCGCATCATCAGCCAATTAATCCCCTAACCATCCCCTTTCGGAGTCACCTAGTGCAG” was run?
A: Its binding signal is 7460 fluorescence intensity (a.u.).

Q: With “GGTAAATTATTATTCTGGGATAATTCGAGCGGCAAGCTCACGGAGTCACCTAGTGCAG” as the sequence, how does the binding signal read?
A: Its binding signal is 25800 fluorescence intensity (a.u.).

Q: “CCTAATCTTGTGAGTAATCAAGCCTATTTCATTTGATATACGGAGTCACCTAGTGCAG” was tested. Which binding signal did it give?
A: The binding signal was 3260 fluorescence intensity (a.u.).

Q: “TTTCTATTTCATTTCTAATTTAATTCATCGGATTGAATCTCGGAGTCACCTAGTGCAG” was tested. Which binding signal did it give?
A: Its binding signal is 4250 fluorescence intensity (a.u.).

Q: “GCCCAAATTAGCAGCTGCTTTGGTGAAACTTTGTGTATAACGGAGTCACCTAGTGCAG” was tested. Which binding signal did it give?
A: Its binding signal is 4800 fluorescence intensity (a.u.).

Q: “CTTGATTACGGCCATTAGGGCTTAATAATGCGGATTAGTACGGAGTCACCTAGTGCAG” was tested. Which binding signal did it give?
A: Its binding signal is 33600 fluorescence intensity (a.u.).

Q: How did the binding signal turn out when “GTCTGAAGTGAAAATTGAATGGAAAATTAAAGTTGGTGATCGGAGTCACCTAGTGCAG” was run?
A: The binding signal was 5380 fluorescence intensity (a.u.).

Q: For “ATTATCCATTCAATCAAAACAAGCAGGACTACTAGAAAGCCGGAGTCACCTAGTGCAG”, which binding signal is on record?
A: Its binding signal is 8940 fluorescence intensity (a.u.).

Q: How did the binding signal turn out when “CACATTAGATTAAGTGATGAGATGGAGGAGAGAAGTAAGGCGGAGTCACCTAGTGCAG” was run?
A: Its binding signal is 6740 fluorescence intensity (a.u.).

Q: With “ATTTGATTTTCTGTCTTTTCTTCAACTCGATTTTGTTAAACGGAGTCACCTAGTGCAG” as the sequence, how does the binding signal read?
A: Its binding signal is 8770 fluorescence intensity (a.u.).

Q: “GGTAGTACTTAATTAATCACGCGCTAATAGACCGCTCTGTCGGAGTCACCTAGTGCAG” was tested. Which binding signal did it give?
A: The binding signal was 22600 fluorescence intensity (a.u.).

Q: Which binding signal does the source give for “TTAACTATCAAATGACTTATAATTTAAAGCGAAGGAAGTACGGAGTCACCTAGTGCAG” here?
A: The binding signal was 5120 fluorescence intensity (a.u.).

Q: How did the binding signal turn out when “TTAATTATACAGCCCGTTTTCTTCACCTTATTATACTCGGCGGAGTCACCTAGTGCAG” was run?
A: The binding signal was 6110 fluorescence intensity (a.u.).

Q: For “CAAAATTACAGATTTAAGAAAACTATAGATTTAGTGTATTCGGAGTCACCTAGTGCAG”, which binding signal is on record?
A: Its binding signal is 11000 fluorescence intensity (a.u.).

Q: For “TATTTTGTCTTGGTGATTGACTTGACTTGTAACCCCTAAGCGGAGTCACCTAGTGCAG”, which binding signal is on record?
A: The binding signal was 26600 fluorescence intensity (a.u.).

Q: “TCAGATTGCTACAATAATATATAGTCTATGATTTTATCAACGGAGTCACCTAGTGCAG” was tested. Which binding signal did it give?
A: Its binding signal is 9410 fluorescence intensity (a.u.).

Q: For “TGCAAATTGTTTGCAATTTGACAATAGAAATACTTGATCACGGAGTCACCTAGTGCAG”, which binding signal is on record?
A: The binding signal was 10700 fluorescence intensity (a.u.).

Q: With “TTTGTCTCTACAATTGCTAATTATATTGCAGATTAGTGTACGGAGTCACCTAGTGCAG” as the sequence, how does the binding signal read?
A: Its binding signal is 4410 fluorescence intensity (a.u.).

Q: For “CGGGTCGATTGATTGCTAGGCGAAATTACCAAGTTACCCTCGGAGTCACCTAGTGCAG”, which binding signal is on record?
A: Its binding signal is 48200 fluorescence intensity (a.u.).

Q: Which binding signal does the source give for “GCTCTAATCATATGGTTAATTAAAATGTGGCACACATGGTCGGAGTCACCTAGTGCAG” here?
A: The binding signal was 39900 fluorescence intensity (a.u.).

Q: With “TTGATTGTTTCATGTAAAATTTAAATATATTAGTTATATACGGAGTCACCTAGTGCAG” as the sequence, how does the binding signal read?
A: Its binding signal is 5700 fluorescence intensity (a.u.).

Q: With “AAAATCACCATCAATCCCCACATGTGAAGTGAGTGATAGACGGAGTCACCTAGTGCAG” as the sequence, how does the binding signal read?
A: The binding signal was 17100 fluorescence intensity (a.u.).

Q: “AAATAACAAATGGATCAATTTGCCAGCAATCTAGGCCCATCGGAGTCACCTAGTGCAG” was tested. Which binding signal did it give?
A: The binding signal was 10600 fluorescence intensity (a.u.).

Q: With “ATCTGACGAGAGTAAATTAATTGGACCGAATTAATCTGAACGGAGTCACCTAGTGCAG” as the sequence, how does the binding signal read?
A: Its binding signal is 36000 fluorescence intensity (a.u.).

Q: For “AAAGCTAATGTTTAATTAGTCCTACACTAATAATCCTCCTCGGAGTCACCTAGTGCAG”, which binding signal is on record?
A: Its binding signal is 3440 fluorescence intensity (a.u.).

Q: Which binding signal does the source give for “GCATCATCTTAATTGACTGTAGTAGTACTAGTACGTAATGCGGAGTCACCTAGTGCAG” here?
A: Its binding signal is 35200 fluorescence intensity (a.u.).

Q: “CAAGATGAATCTTTTAAGCCTAATTGCGTCATGATTTGACCGGAGTCACCTAGTGCAG” was tested. Which binding signal did it give?
A: Its binding signal is 4180 fluorescence intensity (a.u.).

Q: For “TACACTAATTACAAAACACATTCCATATCCTTGGACTAATCGGAGTCACCTAGTGCAG”, which binding signal is on record?
A: The binding signal was 9720 fluorescence intensity (a.u.).

Q: Which binding signal does the source give for “TCTTTTGACCAATTAAGTTCAGTTACCAGAGAGGTTGATTCGGAGTCACCTAGTGCAG” here?
A: The binding signal was 5360 fluorescence intensity (a.u.).

Q: With “CCACATCATCTAAATTGTTTCTTTATCCCTATGATAGTTGCGGAGTCACCTAGTGCAG” as the sequence, how does the binding signal read?
A: Its binding signal is 4360 fluorescence intensity (a.u.).

Q: With “TCAGACTTAATCAAACTGTCAAGAACATACATAAGCACATCGGAGTCACCTAGTGCAG” as the sequence, how does the binding signal read?
A: The binding signal was 4090 fluorescence intensity (a.u.).

Q: With “TAAAATTACATATGTAATTATAGTGTAAGTACGATGTAATCGGAGTCACCTAGTGCAG” as the sequence, how does the binding signal read?
A: Its binding signal is 25500 fluorescence intensity (a.u.).

Q: How did the binding signal turn out when “ATTAATAGAATCAATACAAGGCCATTTATCATGATAGACACGGAGTCACCTAGTGCAG” was run?
A: Its binding signal is 7760 fluorescence intensity (a.u.).

Q: “TTAATTAAATTGGACCACCATAACCTAAAATCCTAGCTACCGGAGTCACCTAGTGCAG” was tested. Which binding signal did it give?
A: The binding signal was 44800 fluorescence intensity (a.u.).
